# Screen size: about 310,000 compounds; about 11,000 (3.5%) were called active. Inconclusive results, whose numbers are uncertain, are shown with a selection of clear calls. Calls follow the shape of the dose curve; as a rule, active = well fitted inhibition curve with a large enough effect; inconclusive = small, poorly fitted or top-dose-only effect, or effect the other way; inactive = flat fitted curve, though single readings scatter. Potencies of inconclusive entries are left out as doubtful fits.
# Experiment: VP16 counterscreen qHTS for inhibitors of ROR gamma transcriptional activity;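 also: Gal4-VP16 expression switched on by copper sulfate through the metallothionein promoter; nearly all actives have a fitted effect of over 50% in size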
# Conditions: Drosophila S2 Gal4-VP16 UAS-luciferase, luminescence, 20 h; activity, negative = inhibition: at 53.6 µM (top of the series)
# % is scaled to controls: 0 for no effect and ±100 for the full control effect; potency is read from the fitted curve at half-maximal effect; tags tell the direction and shape of the fitted curve.
SMILES,Potency,"activity, negative = inhibition"
CCOc1ccc(C(=O)Nc2cc(C)on2)cc1,"inconclusive [inhibitor, single point]",
O=C(COc1ccccc1Br)NCc1ccccn1,,inactive: -22.2%
Cc1c(-c2ccccc2)oc2c(C(=O)N3CCN(c4ccccc4F)CC3)cccc2c1=O,"inconclusive [activator, single point]",
COc1ccc(S(=O)(=O)N2CCCC(C(=O)Nc3cccc(C(C)=O)c3)C2)cc1 (stereo unspecified),active: 4.47 µM,
O=C(Nc1ccc(S(=O)(=O)NCC2CCCO2)cc1)c1ccccc1 (stereo unspecified),"inconclusive [inhibitor, single point]",
Cc1cccc(-n2c(C)cc(/C=C3\NC(=O)NC3=O)c2C)c1,,inactive: -3.45%
Cc1nn(-c2cc(C)c3ccccc3n2)c2c1CCC2,"inconclusive [inhibitor, full curve]",
COc1ccc(-c2nc(NC(=O)c3n[nH]c(=O)c4ccccc34)sc2C)cc1,,inactive: -6.09%
O=c1c2cccnc2[nH]c(=S)n1Cc1ccccc1,active: 3.98 µM,
COc1ccc(CNCCC(c2ccc(OC(C)C)cc2)C(C)C)cc1OC (stereo unspecified),,inactive: -24.7%
Cc1csc(NC(=O)CSc2nnc(CCNC(=O)c3cccs3)n2C)n1,,inactive: 5.08%
COc1ccc(C(=O)C23CC4CC(C2)CC(C(=O)c2ccc(OC)cc2)(C4)C3)cc1,"inconclusive [inhibitor, single point]",
O=C(Nc1nc(N2C(=O)c3ccccc3C2=O)n(-c2ccccc2)n1)c1ccc(Cl)cc1,"inconclusive [inhibitor, single point]",
O=C(/C=C/c1ccc(Cl)cc1Cl)NC(=S)Nc1ccc(CN2CCOCC2)cc1,active: 4.47 µM,
COc1ccc(CCNC(=O)/C(C#N)=C2\N=C(NC(=O)c3cccs3)c3ccccc32)cc1,"inconclusive [inhibitor, single point]",
Cc1ccc(C(CNC(=O)Nc2ccc(Cl)cc2)N2CCN(C)CC2)cc1 (stereo unspecified),,inactive: 5.19%
COC(=O)c1sc(S(=O)(=O)Nc2ccc(C)c(C)c2)c(C(=O)OC)c1C,"inconclusive [activator, single point]",
Cc1cc(C)nc(N/C(=N\S(=O)(=O)Cc2ccccc2)Nc2cccc(Cl)c2C)n1,,inactive: -0.335%
CCOC(=O)C1=C(C)N(C)C(C)=C(C(=O)OCC)C1c1ccc(Cl)cc1,active: 22.4 µM,
Cc1ccc(/C=N/n2c(-c3cccnc3)n[nH]c2=S)s1,"inconclusive [inhibitor, single point]",
CC(C)=N/N=C1\NC(=O)C(C)S1 (stereo unspecified),"inconclusive [inhibitor, single point]",
CCC(C)NC(=O)Cc1ccc(-c2ccccc2)cc1 (stereo unspecified),"inconclusive [activator, partial curve]",
COc1ccc(C(=O)/C=C2/C(=O)Nc3ccccc32)cc1OC,"inconclusive [inhibitor, full curve]",

SMILES,Potency,"activity, negative = inhibition"
COc1cccc(/C=C/C2=CC(C)(C)NC(=S)N2)c1,active: 5.01 µM,
O=C(c1ccc2c(=O)n(Cc3ccccc3)c(=S)[nH]c2c1)N1CCCC1,"inconclusive [inhibitor, single point]",
O=C(O)c1ccccc1SC1CC(=O)N(c2cccc3ccccc23)C1=O (stereo unspecified),"inconclusive [inhibitor, single point]",
CC(=O)c1c(C)[nH]c(C(=O)COC(=O)c2cccc(S(=O)(=O)N(C)c3ccccc3)c2)c1C,active: 5.62 µM,
O=C(O)CCCC(=O)Nc1ccc2c(c1)oc1ccccc12,"inconclusive [inhibitor, partial curve]",
Cc1ccc(-c2cc(-c3ccccc3[N+](=O)[O-])[nH]n2)c(O)c1,"inconclusive [inhibitor, partial curve]",
O=c1c2cc(N3CCOCC3)ccc2[nH]c(=S)n1Cc1ccccn1,"inconclusive [inhibitor, single point]",
NNc1nc(-c2ccccc2)nc2sc3c(c12)CCCC3,"inconclusive [inhibitor, single point]",
CCC1Oc2ccccc2N(CC(=O)NCCc2ccc(OC)c(OC)c2)C1=O (stereo unspecified),,inactive: -5.96%
CCOc1ccc(NCC(=O)N/N=C/C=C/c2ccccc2)cc1,"inconclusive [inhibitor, single point]",
NNc1nc2ccc(Cl)cc2s1,"inconclusive [inhibitor, single point]",
C/C(Cn1nnc([N+](=O)[O-])n1)=N\NC(=O)c1ccc(Cl)c(Cl)c1,"inconclusive [inhibitor, single point]",
CCOC(=O)Cc1csc(NC(=O)Nc2ccccc2)n1,"inconclusive [activator, single point]",
CCNC(=O)C12CCC(C)(C(=O)C1Br)C2(C)C (stereo unspecified),"inconclusive [activator, single point]",
CO[C@H]1C[C@@H]2CC[C@@H](C)[C@@](O)(O2)C(=O)C(=O)N2CCCC[C@H]2C(=O)O[C@H]([C@H](C)C[C@@H]2CC[C@@H](O)[C@H](OC)C2)CC(=O)[C@H](C)C=C(C)[C@@H](O)[C@@H](OC)C(=O)[C@H](C)C[C@H](C)C=CC=CC=C1C,"inconclusive [inhibitor, full curve, poor fit]",
S=C(N/N=C/c1ccc2ncccc2c1)Nc1ccccc1,"inconclusive [inhibitor, full curve]",
O=C(NNc1ccccn1)C(c1ccccc1)c1ccccc1,,inactive: -7.48%
O=C(Nc1nnc(-c2ccccc2)o1)C1CCCCC1,active: 7.94 µM,
COc1cccc(-c2nnc3n2N=C(C(C)(C)C)CS3)c1,"inconclusive [inhibitor, single point]",
COc1ccc(NC(=S)NCCCc2ccccc2)cc1,active: 12.6 µM,
O=C(NNC(=S)Nc1ccc(F)cc1)C1CC1c1ccc(Cl)cc1 (stereo unspecified),active: 20 µM,
Oc1ccc(CNc2ccccc2)c2cccnc12,active: 0.794 µM,
O=C(CC1SC(=O)N(Cc2cccc3ccccc23)C1=O)Nc1nccs1 (stereo unspecified),"inconclusive [inhibitor, single point]",
